Hit rate of the full screen: of about 340,000 compounds, about 6,900 (2%) were called active. No stated cut-off is given here; in the data, active means inhibition above about 30%; inactive means below that, where a call was filed. This is a selection; strong and weak results do not stand in their true shares. The source gives no active or inactive call for entries shown without one.
Target: D(2) dopamine receptor (Homo sapiens) (UniProt P14416)
Assay: HTS Assay for Allosteric Antagonists of the Human D2 Dopamine Receptor: Primary Screen for Antagonists; further: 0% is about no effect
Details: HEK293 TREx D2 cells, calcium flux, dopamine EC80; at 10 µM; stronger effect = higher value
Summary of the method: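 Antagonism is scored as inhibition of an EC80 dopamine-evoked calcium signal in a force-coupled, tetracycline-inducible HEK293 T-REx D2 line, with compound present 180 s before agonist.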

Chain of UniProt P14416 (P14416 whole entry, looked up): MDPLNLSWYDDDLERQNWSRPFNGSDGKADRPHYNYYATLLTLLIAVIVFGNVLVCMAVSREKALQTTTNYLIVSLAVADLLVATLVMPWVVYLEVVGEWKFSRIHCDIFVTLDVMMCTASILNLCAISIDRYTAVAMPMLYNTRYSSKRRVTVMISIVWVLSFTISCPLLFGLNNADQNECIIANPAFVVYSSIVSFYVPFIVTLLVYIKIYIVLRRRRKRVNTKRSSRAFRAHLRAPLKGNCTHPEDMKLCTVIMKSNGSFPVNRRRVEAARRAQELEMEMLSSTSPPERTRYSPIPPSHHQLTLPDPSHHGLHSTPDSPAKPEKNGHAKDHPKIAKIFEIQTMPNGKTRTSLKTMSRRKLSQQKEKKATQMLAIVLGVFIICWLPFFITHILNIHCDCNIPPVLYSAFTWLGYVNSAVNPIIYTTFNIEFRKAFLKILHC

SMILES	inhibition
CN1CC2=Cc3ccccc3OC23Oc2ccccc2C=C3C1	active: 64.2%
CC(C)c1nc2n(n1)C1(CCCCC1)[C@@H]1CCCC[C@@H]1N2	10.2%
Cc1c(CNC2CCCCC2)c(C(=O)O)c(C)n1Cc1ccc(F)cc1	-0.336%
CCOc1ccc(C(=O)Nc2ccc(-n3nncc3-c3ccccc3)cc2)cc1OCC	-15.3%
CCN(C(=O)c1cc2c(=O)n3cccc(C)c3nc2s1)c1ccc(C)c(C)c1	-21.1%
O=C(CN1CCN(C(=O)c2ccco2)CC1)Nc1ccc2c(c1)OCCO2	active: 53.5%
CC(C)(C)c1ccccc1NC(=O)CSc1nc(-c2cccs2)cc(C(F)(F)F)n1	-2.18%
Cc1nn(CC(=O)Nc2cc(F)ccc2F)c(=O)c2cccn12	-3.69%
CC(C)c1noc(-c2ccccc2OCC(=O)Nc2ccccc2[N+](=O)[O-])n1	-12.9%
Cc1cc(C)cc(OC(=O)N2CCOCC2)c1	active: 37.8%
Cc1cc(Nc2ccc(Cl)cc2C)nc(-n2nc(C)cc2C)n1	-17.1%
O=C(NCc1ccc2c(c1)CCN2C(=O)c1ccc(F)cc1)c1ccco1	3.44%
COc1ccccc1C(=O)Nc1cccc(C(=O)OCc2cc(=O)n3nc(C)sc3n2)c1	-0.355%
O=C(c1cc2ccc3cccnc3c2[nH]1)N1CCN(c2ccc(Cl)cc2)CC1	1.5%
Cc1c(Cl)cccc1NC(=O)Cn1nnc2sc3c(c2c1=O)CCCC3	16.5%
O=C(Nc1cccc(Cl)c1Cl)c1cc(S(=O)(=O)NCCc2ccccc2)ccc1F	-3.99%
Cc1ccc(/C=N/NC(=O)c2cccs2)cc1[N+](=O)[O-]	active: 35.3%
O=C(CN1C(=O)C2(SCC(=O)N2c2ccccc2)c2ccccc21)NCc1ccccc1 (stereo unspecified)	-19.3%
NC(=O)CSc1ncc2c(n1)-c1ccccc1N(Cc1ccc(Cl)cc1)S2(=O)=O	-1.44%
C=Cc1ccc(COc2ccc3oc(-c4ccccc4)c(C(=O)OCC)c3c2)cc1	4.49%
COc1ccc(CNC(=O)c2cc(=O)c3cc(C)ccc3o2)cc1	-8.67%
CCOC(=O)c1ccc(NC(=O)C2(S(=O)(=O)c3ccc(Cl)cc3)CC2)cc1	-9.85%
Cc1cccc(C)c1NS(=O)(=O)c1ccc(NS(=O)(=O)c2ccc3c(c2)OCCO3)cc1	-3.55%
Cc1ccccc1NC(=O)CCC(=O)N1CC(C)Sc2ccccc21 (stereo unspecified)	-9.09%

SMILES	inhibition
Cc1ccc2oc(=O)c3cc(C(=O)NCCCN4CCCC(C)C4)sc3c2c1 (stereo unspecified)	active: 42.8%
COc1cccc(CNC(=O)CSC2=Nc3ccccc3C3=NC(C(C)C)C(=O)N23)c1 (stereo unspecified)	7.38%
Cc1ccc(C)c(N2CCN(CCCNC(=O)c3ccc4nc(N5CCCCC5)sc4c3)CC2)c1	4.89%
Cc1ccc(-c2nnc(Nc3ccccc3)c3ccccc23)cc1S(=O)(=O)NCc1nc2ccccc2[nH]1	-4.27%
CCOC(=O)COc1ccc([N+](=O)[O-])cc1-c1ccnc2cc(-c3ccc(C)cc3)nn12	-18.4%
Cc1cccc(N2CCN(C(=O)CCS(=O)(=O)c3ccc4c(c3)oc(=O)n4C)CC2)c1C	8.69%
COc1ccc(C(=O)N(c2ccc(OC)cc2)S(=O)(=O)c2ccc3c(c2)n(C)c(=O)n3C)cc1	0.806%
CC(=O)c1cccc(N(CC(=O)Nc2ccccc2F)S(C)(=O)=O)c1	active: 46.2%
CCOc1ccc(-c2cc(C)n3nc(C(=O)Nc4ccc(C)c(C)c4)cc3n2)cc1	25.6%
CCc1ccc(N2CC(C)Cn3c2nc2c3c(=O)n(CC(=O)O)c(=O)n2C)cc1 (stereo unspecified)	14.8%
CCc1nnc(SCC(=O)Nc2ccc(OC)c(OC)c2)c2cc3occc3n12	10.8%
CC(Oc1ccccc1)C(=O)Nc1ccccc1C(=O)OCc1cc(=O)n2nc(C3CC3)sc2n1 (stereo unspecified)	4.08%
COC(=O)Cc1c(C)nc2nc(NCc3ccc(Br)cc3)[nH]n2c1=O	-6.49%
CCOC(=O)CN(Cc1ccccc1)C(C(=O)NC1CCCCC1)c1ccccc1 (stereo unspecified)	4.29%
Cc1ccccc1OCc1nnc(SCc2cc(=O)c3cc(F)ccc3[nH]2)n1C	1.6%
N#C/C(=C\c1cccc(F)c1)c1nc(-c2cc3ccccc3oc2=O)cs1	0.715%
Cc1ccc2c(c1)c1c(c(=O)n(Cc3ccccc3)c(=O)n1Cc1cccc(F)c1)n2C	-0.455%
COc1ccc(-c2ccc(CCC(=O)O)n2-c2ccccc2C(F)(F)F)cc1	4.35%
COc1ccc(-c2nc3ccccc3o2)cc1NC(=O)c1cc([N+](=O)[O-])ccc1N1CCOCC1	-27.2%
CCC1CN(CC(=O)NCc2cccc(Br)c2)c2ccccc2S1 (stereo unspecified)	4%
c1ccc2c(c1)nc1n2CC2CON(C3CCCCC3)C12 (stereo unspecified)	active: 37%
COc1ccc(CNC(=O)C2CCN(S(=O)(=O)N3CCC(C)CC3)CC2)c(OC)c1	2.34%
Cc1ccc(NS(=O)(=O)c2cn(C)c(C)n2)c(Br)c1	0.694%
Cc1cccc(CNC(=O)c2ccc(Cn3c(SCc4cccc(F)c4)nc4cccnc43)cc2)c1	-9.25%

SMILES	inhibition
COc1cc(CN(C(=O)c2ccc(C)cc2)C2CCS(=O)(=O)C2)cc(OC)c1OC (stereo unspecified)	14.8%
CCCSc1ncc(Cl)c(C(=O)Nc2ccc(S(=O)(=O)N3CCCCC3C)cc2)n1 (stereo unspecified)	13.1%
COc1cccc(NC(=O)C2CC(=O)N(c3ccc(Br)cc3)C2)c1 (stereo unspecified)	-3.14%
COc1ccc(NC(=O)CCn2cnnn2)cc1	7.48%
CCOc1ccc(-n2cc(-c3ccccc3)c3c(NCc4ccccc4)ncnc32)cc1	-9.87%
COC(=O)Cc1c(C)c2ccc3c(c2oc1=O)CN(Cc1ccc(Cl)cc1)CO3	8.14%
COCCn1c(SCc2ccccc2F)nc2c([nH]c3ccccc32)c1=O	8.86%
Cc1ccc(-n2c(=O)c3ccc(C(=O)NCc4ccccc4Cl)cc3n(Cc3cccc(F)c3)c2=O)cc1	1.79%
Cc1ccc(CNC(=O)C2CCCN(c3nn4cc(-c5ccc(C)cc5)nc4s3)C2)cc1 (stereo unspecified)	-17.5%
COc1ccc(N2CCN(C(CNC(=O)c3c(F)cccc3F)c3ccc4c(c3)OCO4)CC2)cc1 (stereo unspecified)	15%
CCOC(=O)c1cc2c(=O)n3ccccc3nc2n(CC2CCCO2)c1=NC(=O)c1ccccc1OCC (stereo unspecified)	11.8%
Cc1ccc(-n2nc(C(=O)N3CCN(c4cc(C)ccc4C)CC3)c3c4ccccc4n(C)c3c2=O)cc1	-4.51%
Cc1ccc(-n2c(N)cc(=O)nc2SCC(=O)N2CCN(c3ccccc3)CC2)cc1	active: 63.6%
Cc1c(NC(=O)C(C)(C)C)cccc1-c1nc2ccccc2s1	6.17%
CC1Cc2cc(S(=O)(=O)CCC(=O)Nc3ccc(F)cc3Cl)ccc2N1C(=O)C1CC1 (stereo unspecified)	-0.691%
Cn1cc(S(=O)(=O)N2CCc3ccccc32)cc1C(=O)Nc1ccc(C(F)(F)F)cc1	0.494%
CCOc1ccccc1NC(=O)Cn1c(=O)n(-c2ccc(Cl)cc2)c(=O)c2oc3ccccc3c21	17.8%
CCN(CC)c1ccc(NC(=O)Cn2cc3c(n2)CCCC3)c(C)c1	-13.2%
CCc1ccc(NC(=O)CSc2nc3c([nH]c4ccccc43)c(=O)n2C)cc1	-25.5%
COc1cccc(CN2CCCN(Cc3ccc(F)cc3)S2(=O)=O)c1	8.77%
CCCOc1ccc(C(=O)Nc2cc(-c3nc4ccccc4[nH]3)ccc2C)cc1	1.6%
CN(CCOc1ccccc1)CC(=O)Nc1ccc(Br)cc1F	active: 52.9%
COc1ccc(OC)c(CN2CCN(C(=O)c3ccco3)CC2)c1	active: 83%
Cc1ccccc1OCC(=O)Nc1nnc(SCc2cc(=O)n3cccc(C)c3n2)s1	-5.95%

SMILES	inhibition
COc1ccc(C)cc1NC(=O)C1CCN(S(=O)(=O)Cc2ccccc2)CC1	5.68%
Cc1ccc(O)c(NC(=O)C2=CC(c3cccs3)=NS(=O)(=O)N2C)c1	5.34%
COc1cccc(CNC(=O)c2cc3cc(C)ccc3n2C)c1	4.38%
CC(C)n1c(SCC(=O)c2ccc(F)cc2)nc2c(sc3ccccc32)c1=O	-2.14%
COc1ccccc1OCCCn1c(C2CC(=O)N(c3ccc(F)cc3)C2)nc2ccccc21 (stereo unspecified)	-6.64%
S=C(Nc1ccc2c(c1)OCO2)NC1CCN(Cc2ccccc2)CC1	active: 58.9%
Cc1cccc2nc(Cn3c(=O)n(-c4ccccc4)c(=O)c4c5c(sc43)CCC5)cc(=O)n12	-8.07%
COc1ccc(CCNC(=O)c2c(Nc3ccccc3C)sc(C(=O)c3ccccc3)c2N)cc1OC	-12.7%
CCCCC(CC)CNC(=O)c1ccc(Cn2c(=O)[nH]c3cc(OC)c(OC)cc3c2=O)cc1 (stereo unspecified)	5%
CCOc1ccccc1NC(=O)CSc1nnc(CC)c(CC)n1	7.27%
CCN1c2ccccc2-c2nc(SCC(=O)Nc3cc(OC)cc(OC)c3)ncc2S1(=O)=O	10.6%
COc1ccc(-c2nn(C)c3sc(C(=O)Nc4cc(OC)c(OC)c(OC)c4)cc23)cc1OC	6.62%
CCCN(C(=O)c1c(C)oc2ncn(CC(C)C)c(=O)c12)c1ccccc1C	-7.24%
CCOc1ccc(-c2nnc(SCC(=O)NCc3ccccc3)nc2-c2ccc(OCC)c(OC)c2)cc1OC	16%
CCc1ccc(C2CC(=O)Nc3c2c(C)nn3-c2nc(C)cc(C)n2)cc1 (stereo unspecified)	-0.272%
CCOc1ccccc1NC(=O)N1CCN(Cc2nc3ccc(C)cc3o2)CC1	-3.4%
Cc1ccc(C)c(N2CCN(S(=O)(=O)c3c(C)nc4sccn4c3=O)CC2)c1	26.9%
CCOc1ccccc1NC(=O)Cn1cnc2sc(C)c(S(=O)(=O)N3CCC(C)CC3)c2c1=O	-7.05%
COc1cccc(Nc2c3c(nc4nncn24)CCC3)c1	2.84%
Cc1cc(C)cc(-n2c(SCC(N)=O)nc3c(oc4ccccc43)c2=O)c1	-0.199%
CCCCOc1cccc(C(=O)Nc2ccc3oc(-c4cccnc4)nc3c2)c1	7.93%
Cc1ccc(NC(=O)C2OCCc3ccccc32)cc1C (stereo unspecified)	active: 41.5%
CCc1cccc(NC(=O)CCS(=O)(=O)c2cc(Br)cc3c2N(C(C)=O)CC3)c1	-4.86%
O=C(CSc1nc2ccccc2nc1Cc1ccccc1)N1CCCCC1	2.19%

Reference: PubChem BioAssay AID485344 (National Center for Advancing Translational Sciences (NCATS), 2010)
